# Laboratory results reported in paper PMC4336329 (PLoS ONE, 2015).
# Hit rate of the full screen: of about 310,000 compounds, about 14,000 (4.5%) showed an effect of 50% or more. Effects have a minus sign here. The list shows a part of the results.
# Target: human ether-à-go-go-related gene (hERG) potassium channel (human, UniProt Q12809)
# Experiment: primary screen, population patch clamp on CHO cells stably expressing hERG
# 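Note: peak tail current of the secondary pulse compared with the same well before compound.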
# human ether-à-go-go-related gene (hERG) potassium channel, sequence (Q12809 whole entry, looked up): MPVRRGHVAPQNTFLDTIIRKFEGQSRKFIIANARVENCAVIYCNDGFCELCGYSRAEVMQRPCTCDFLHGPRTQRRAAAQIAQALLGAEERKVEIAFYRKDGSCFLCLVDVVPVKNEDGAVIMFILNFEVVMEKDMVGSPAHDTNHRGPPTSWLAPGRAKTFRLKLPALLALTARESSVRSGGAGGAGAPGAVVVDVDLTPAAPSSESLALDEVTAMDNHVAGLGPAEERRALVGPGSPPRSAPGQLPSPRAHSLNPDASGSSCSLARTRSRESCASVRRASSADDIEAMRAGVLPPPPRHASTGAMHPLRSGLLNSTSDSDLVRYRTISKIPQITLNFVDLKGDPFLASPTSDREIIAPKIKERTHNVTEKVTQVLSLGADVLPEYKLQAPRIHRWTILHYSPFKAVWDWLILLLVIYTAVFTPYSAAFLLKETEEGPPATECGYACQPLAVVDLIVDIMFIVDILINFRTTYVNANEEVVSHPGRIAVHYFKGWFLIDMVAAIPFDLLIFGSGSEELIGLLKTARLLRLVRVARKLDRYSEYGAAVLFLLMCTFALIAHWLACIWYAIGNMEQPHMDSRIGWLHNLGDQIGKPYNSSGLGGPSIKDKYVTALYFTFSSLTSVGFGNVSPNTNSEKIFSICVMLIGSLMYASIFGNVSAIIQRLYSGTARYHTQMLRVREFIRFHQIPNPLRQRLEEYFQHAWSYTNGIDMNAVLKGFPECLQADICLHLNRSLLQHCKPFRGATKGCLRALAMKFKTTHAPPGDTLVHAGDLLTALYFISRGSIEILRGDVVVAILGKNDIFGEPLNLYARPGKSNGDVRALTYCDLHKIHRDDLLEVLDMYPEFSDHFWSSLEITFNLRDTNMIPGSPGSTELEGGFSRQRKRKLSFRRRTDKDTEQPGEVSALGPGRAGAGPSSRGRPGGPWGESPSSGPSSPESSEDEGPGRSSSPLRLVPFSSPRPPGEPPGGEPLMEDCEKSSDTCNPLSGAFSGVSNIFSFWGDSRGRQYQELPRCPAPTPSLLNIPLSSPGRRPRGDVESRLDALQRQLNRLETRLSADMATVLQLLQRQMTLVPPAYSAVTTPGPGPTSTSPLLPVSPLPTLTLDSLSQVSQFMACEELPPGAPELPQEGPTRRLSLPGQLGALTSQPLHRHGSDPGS
row,Structure (SMILES),"hERG current change (%, negative = inhibition) at 10uM [%]"
1,Cc1cc(NC(=O)/C=C/C(=O)N(c2ccccc2C)C(C(=O)NC2CCCC2)c2ccc(F)cc2)no1 (stereo not shown),17.8
2,CC(C)NS(=O)(=O)c1ccc(OCC(=O)Nc2ccccc2F)cc1,8.99
3,CC1CN(CCOc2ccccc2C(C)C)CC(C)O1.O=C(O)C(=O)O (stereo not shown),0.742
4,CCOC(=O)C1=C(C)N(C)C(C)=C(C(=O)OCC)C1c1ccsc1,32.9
5,CC(C)c1ccc(CCNC(=O)CCNC(=O)c2ccc(Br)cc2)cc1,5.74
6,CC(C)(C)c1ccc(OCC(O)CN2CCN(C(=O)c3ccccc3)CC2)cc1.O=C(O)C(=O)O (stereo not shown),-50.7
7,CC(C)Nc1ccc(C(CC(N)=O)NC(=O)c2ccc(Br)cc2)cc1[N+](=O)[O-] (stereo not shown),-9.82
8,O=C(NCc1ccccn1)c1nc(Cn2cc([N+](=O)[O-])cn2)no1,1.6
9,Cc1sc2ncnc(N3CCC(C(=O)Nc4ccc(C#N)cc4)CC3)c2c1C,7.52
10,CC1=NN(c2ccc(Br)cc2)C(=O)/C1=C/c1cccs1,17.3
11,Cc1nnc(Nc2ccc(O)cc2)[nH]c1=O,27.7
12,CCc1cc(=O)oc2cc(OCC(=O)NCc3ccccn3)ccc12,-12.7
13,Cc1ccc(OCCCN2C(=O)C(=O)c3cc(C)ccc32)cc1,4.57
14,O=C(COc1ccc2ccccc2c1)NNC(=O)Cc1ccccc1,29.7
15,Cc1ccc(CNC(=O)c2ccc3c(=O)n4c(-c5ccc(C)cc5)csc4nc3c2)cc1,7.48
16,COc1ccc2[nH]c3c(c2c1)CC(C)NC3=O (stereo not shown),14.9
17,CCOc1ccc(C(=O)N(CC)CC(=O)Nc2ccc3c(c2)OCCO3)cc1OCC,3.3
18,Cc1sc(NC(=O)CN(Cc2ccccc2)C(=O)C(C)C)c(C(N)=O)c1C,-0.293
19,CSCc1ccc(C(=O)N2CCCC(Nc3ccc(F)cc3)C2)o1 (stereo not shown),-18.7
20,COc1ccccc1C(=O)N1C(CC(=O)Nc2ccc(C)c(C)c2)C(=O)NC2CCCCC21 (stereo not shown),-0.911
21,CC(=O)COc1nc2c(c(-c3ccco3)c1C#N)CCc1ccccc1-2,5.31
22,COc1cccc(/C=N/NC(=O)c2cc(-c3cccn3C)n[nH]2)c1,-61.1

row,Structure (SMILES),"hERG current change (%, negative = inhibition) at 10uM [%]"
1,Cc1ccc(C(=O)NC2CCN(CC(=O)Nc3c(C)cc(C)cc3C)CC2)cc1,-11.9
2,CN(CCC(=O)Nc1cc(S(=O)(=O)N(C)C)ccc1Cl)CC(=O)Nc1ccc(F)cc1,-50.1
3,Cc1cc(C(=O)N/N=C/c2cc(N=Nc3ccccc3)ccc2O)n[nH]1,13.8
4,O=C(CSc1ncn[nH]1)N1c2ccccc2Sc2ccccc21,-5.46
5,COC(=O)C1=C(C(=O)OC)[C@@H]2N(Cc3ccccc3)c3ccccc3[C@@]23C[C@@H](C(=O)OC)N(C(=O)c2cccs2)C3=N1,9.39
6,CCOc1cc(C(C(=O)NCC2CCCO2)N(C(=O)Cn2nnc3ccccc32)c2cccc(OC)c2)ccc1O (stereo not shown),0.616
7,CC(=O)C1=C(O)C(=O)N(c2ccc(O)cc2)C1c1ccc(F)cc1 (stereo not shown),22.3
8,O=C(/C=C/c1cccs1)NC(=S)Nc1ccc(S(=O)(=O)Nc2ccccc2C(F)(F)F)cc1,22.3
9,COc1ccc(C)cc1NC(=O)c1ccc([N+](=O)[O-])cc1[N+](=O)[O-],1.26
10,CCCCN(CCCC)c1nc(-c2ccncc2)nc2ccccc12,-0.281
11,Cc1ccccc1CS(=O)(=O)c1cnc2ccccc2n1,-1.73
12,COc1cc(S(=O)(=O)NC(C)C)ccc1Cl,-8.63
13,CC(Sc1nnc(-c2ccc(OC(F)F)cc2)o1)C(=O)NCC1CCCO1 (stereo not shown),-27.6
14,CCOc1ccc(C(C)=O)cc1COc1cccnc1[N+](=O)[O-],0.534
15,CCN1C(=O)S/C(=C\c2ccc(N3CCOCC3)cc2C)C1=O,-19.7
16,CCOC(=O)C1=C(C)NC(C)=C(C(=O)OCC)C1c1ccco1,2.36
17,O=S(=O)(NCc1ccco1)c1ccc(S(=O)(=O)N2CCCC2)cc1,6.87
18,Cc1cc(C)c2c(=O)[nH]c(SCC(=O)N3CCCCC3)nc2n1,-5.61
19,O=C1OCc2nc3cc4c(cc3c(-c3ccc(F)cc3)c21)OCO4,23.6
20,CN1C(=O)c2cccc3c(S(=O)(=O)NCCc4ccccc4)ccc1c23,-27
21,O=C(CCCCl)Nc1nc(-c2ccc3c(c2)OCCO3)cs1,9.6
22,N#Cc1ccc(S(=O)(=O)N2CCN(C(=O)C3CC(=O)N(c4ccc5c(c4)OCCO5)C3)CC2)cc1 (stereo not shown),-38.8

row,Structure (SMILES),"hERG current change (%, negative = inhibition) at 10uM [%]"
1,C=CCn1c(SCC(=O)NCC)nnc1-c1cc2c(s1)CCC(CC)C2 (stereo not shown),-24
2,CCN(CC)C(=O)C(=O)c1cccn1-c1ccc(C#N)cc1,-18.8
3,CC(=O)c1ccc(N2CCN(CC(=O)Nc3ccc(N4CCOCC4)cc3)CC2)cc1,-2.34
4,O=C(CSc1ccsc1[N+](=O)[O-])N1CCN(c2ccccc2)CC1,2.71
5,O=C(CCc1ccc(S(=O)(=O)NCc2ccccc2)cc1)N1CCN(Cc2ccc3c(c2)OCO3)CC1,-41.2
6,COc1cc(CN2CCC(n3nccc3NC(=O)c3ccc4c(c3)OCO4)CC2)ccc1O,-6.7
7,Cc1ccc(C)c(Sc2ccc(S(=O)(=O)Nc3ccc(C(=O)O)cc3)cc2)c1,-0.837
8,Cc1ccc(Cl)cc1N1CCN(S(=O)(=O)c2c(C)[nH]c(C)c2C(=O)N2CCCC2)CC1,-6.84
9,C/C=C(\C)C(=O)N1CCC(C(=O)c2ccccc2)CC1,12.3
10,COc1ccc(NC(=S)Nc2ccccn2)c(OC)c1,20.4
11,c1ccc2c(c1)oc1c(NCc3ccc4c(c3)OCO4)ncnc12,4.7
12,CC(C)Nc1nc(Cl)nc(NNC(=O)C(C)Oc2ccccc2)n1 (stereo not shown),4.76
13,Cc1n[nH]c(C)c1S(=O)(=O)N1CCc2ccccc21.Cl,3.24
14,CCCCn1c(SCC(=O)NNC(=O)c2ccco2)nnc1-c1ccco1,4
15,CC(C)(C)C(=O)Nc1ccc(Oc2ccc3c(c2)C(=O)N(c2ccc(O)cc2)C3=O)cc1,-14.2
16,Cc1cc(C)nc(N2CCCC(C(=O)NCCC3=CCCCC3)C2)n1 (stereo not shown),-3.18
17,Cc1nc2c(C(=O)N3CCN(c4ccccn4)CC3)cnn2c(C)c1Cc1cccc(Cl)c1,-43.4
18,c1ccc(-c2noc(-c3ccc4ccccc4c3)n2)nc1,16.5
19,O=C1c2ccccc2C(Nc2ccc(S(=O)(=O)N3CCCCCC3)cc2)N1c1ccccn1 (stereo not shown),10.3
20,O=C(O)Cc1cc2c(s1)CCCCC2,29.5
21,Cc1cc(N2CCCC2)ccc1NC(=O)CN1C(=O)NC(C)(c2ccccc2)C1=O (stereo not shown),4.86
22,Cc1ccccc1C(=O)Nc1cccc(C(=O)N/N=C/c2ccccn2)c1,10.9

row,Structure (SMILES),"hERG current change (%, negative = inhibition) at 10uM [%]"
1,Cn1c(=O)[nH]c(=O)c2c1nc(N1CCCCC1)n2CC(O)COc1ccc([N+](=O)[O-])cc1 (stereo not shown),-69.8
2,CCc1cc(=O)oc2c(C)c(OS(C)(=O)=O)ccc12,-10.4
3,CC(=O)c1cc2c(cc1NS(=O)(=O)c1ccc(F)cc1)OCO2,43
4,COC(=O)c1ccc(N=Cc2c(-c3ccccc3)[nH][nH]c2=O)cc1,29.1
5,COc1cc2c(cc1OC)CN(c1ccc(C(F)(F)F)cn1)CC2,15.9
6,CCN(C(=O)Cc1c(C(=O)O)n(C)c2ccccc12)c1cccc(C)c1,13.1
7,Cc1cc(-n2c(C)cc(C(=O)COc3ccccc3[N+](=O)[O-])c2C)no1,-4.91
8,Cc1ccccc1CN1CCN(c2nc3ccccc3s2)CC1,16.8
9,Cl.Nc1c(Br)cc(Br)cc1CNC1CCC(O)CC1 (stereo not shown),-9.72
10,Cc1cccc(NC(=O)c2cnc3n(c2=O)CCS3)c1,-13.5
11,CCC(=O)Nc1nonc1-c1nc2ccccc2n1CC(C)C,-2.85
12,O=C(NCC1(c2ccccc2)CCCC1)c1ccc(Br)cc1,-6.15
13,Cc1ccccc1Cn1nnc(-c2cccc(C(=O)O)c2)n1,-7.2
14,COC(=O)c1cn(C(=O)c2cccc(Br)c2)c2ccccc12,1.86
15,CCOc1cc(C(=O)NCc2nnc(SCC(=O)OC)n2C)cc(OCC)c1OCC,3.23
16,NC(=O)CC(NC(=O)Cc1ccc(Br)cc1)c1ccc(N2CCC(N3CCCCC3)CC2)c([N+](=O)[O-])c1 (stereo not shown),13.6
17,Oc1cccc(/C=N/N2CCCCC2)c1O,-1.12
18,Nc1nonc1C(=O)NCCNC(=O)c1ccccc1F,4.12
19,COC(=O)C1=C(Nc2ccc(C)cc2)C=C(C)C(C(=O)OC)C1c1cccc(OC)c1 (stereo not shown),-1.3
